The supplement of paper PMC8728848
This is one part of the list.

Tests used:
Assay in all cases: glycan array binding signal (z-score within array); higher = stronger binding
Settings in all cases: glycan notation: IUPAC condensed, linker removed
GalNAc(b1-4)GlcNAc = target: GalNAc(b1-4)GlcNAc
How it was run: (§1)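 The binding signal is a Z-score computed within each array and averaged over linkers. Arrays of the same protein sequence at different concentrations or buffers were also averaged together. Data originate from 3228 arrays in the Consortium for Functional Glycomics database, kept only where the protein sequence was available.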

[1] = target: GalNAc(b1-4)GlcNAc(b1-2)Man
How it was run: as §1

[2] = target: GalNAc(b1-4)GlcNAc(b1-2)Man(a1-3)[GalNAc(b1-4)GlcNAc(b1-2)Man(a1-6)]Man(b1-4)GlcNAc(b1-4)GlcNAc
How it was run: as §1

[3] = target: GalNAc(b1-4)GlcNAc(b1-3)GalNAc(b1-4)GlcNAc
How it was run: as §1

GalNAc(b1-4)GlcNAc6S = target: GalNAc(b1-4)GlcNAc6S
How it was run: as §1

GalNAc(b1-6)GalNAc = target: GalNAc(b1-6)GalNAc
How it was run: as §1

GalNAc3S(b1-4)GlcNAc = target: GalNAc3S(b1-4)GlcNAc
How it was run: as §1

GalNAc3S(b1-4)GlcNAc3S = target: GalNAc3S(b1-4)GlcNAc3S
How it was run: as §1

[4] = target: GalNAc3S(b1-4)[Fuc(a1-3)]GlcNAc
How it was run: as §1

GalNAc4S6S(b1-4)GlcNAc = target: GalNAc4S6S(b1-4)GlcNAc
How it was run: as §1

GalNAc6S(b1-4)GlcNAc = target: GalNAc6S(b1-4)GlcNAc
How it was run: as §1

Glc(a1-4)Glc = target: Glc(a1-4)Glc
How it was run: as §1

[5] = target: Glc(a1-4)Glc(a1-4)Glc(a1-4)Glc
How it was run: as §1

Glc(a1-6)Glc(a1-6)Glc = target: Glc(a1-6)Glc(a1-6)Glc
How it was run: as §1

[6] = target: Glc(a1-6)Glc(a1-6)Glc(a1-6)Glc
How it was run: as §1

Glc(b1-4)Glc = target: Glc(b1-4)Glc
How it was run: as §1

Glc(b1-6)Glc = target: Glc(b1-6)Glc
How it was run: as §1

GlcA(b1-3)Gal = target: GlcA(b1-3)Gal
How it was run: as §1

GlcA(b1-3)GlcNAc = target: GlcA(b1-3)GlcNAc
How it was run: as §1

GlcA(b1-6)Gal = target: GlcA(b1-6)Gal
How it was run: as §1

[7] = target: GlcA3S(b1-3)Gal(b1-4)GlcNAc(b1-2)Man
How it was run: as §1

[8] = target: GlcA3S(b1-3)Gal(b1-4)GlcNAc(b1-3)Gal(b1-4)Glc
How it was run: as §1

[9] = target: GlcNAc(a1-3)Gal(b1-4)GlcNAc
How it was run: as §1

[10] = target: GlcNAc(a1-4)Gal(b1-3)GlcNAc
How it was run: as §1

[11] = target: GlcNAc(a1-4)Gal(b1-4)GalNAc
How it was run: as §1

[12] = target: GlcNAc(a1-4)Gal(b1-4)GlcNAc
How it was run: as §1

[13] = target: GlcNAc(a1-4)Gal(b1-4)GlcNAc(b1-3)Gal(b1-4)Glc
How it was run: as §1

[14] = target: GlcNAc(a1-4)Gal(b1-4)GlcNAc(b1-3)Gal(b1-4)GlcNAc
How it was run: as §1

[15] = target: GlcNAc(a1-4)Gal(b1-4)GlcNAc(b1-3)Gal(b1-4)GlcNAc(b1-3)Gal(b1-4)GlcNAc
How it was run: as §1

[16] = target: GlcNAc(a1-4)Gal(b1-4)GlcNAc(b1-3)Gal(b1-4)[Fuc(a1-3)]GlcNAc(b1-3)Gal(b1-4)[Fuc(a1-3)]GlcNAc
How it was run: as §1

[17] = target: GlcNAc(a1-6)Gal(b1-4)GlcNAc
How it was run: as §1

[18] = target: GlcNAc(b1-2)Gal(b1-3)GalNAc
How it was run: as §1

[19] = target: GlcNAc(b1-2)Man(a1-3)[GlcNAc(b1-2)Man(a1-6)]Man(b1-4)GlcNAc(b1-4)GlcNAc
How it was run: as §1

[20] = target: GlcNAc(b1-2)Man(a1-3)[GlcNAc(b1-2)Man(a1-6)]Man(b1-4)GlcNAc(b1-4)[Fuc(a1-6)]GlcNAc
How it was run: as §1

[21] = target: GlcNAc(b1-2)Man(a1-3)[GlcNAc(b1-4)][GlcNAc(b1-2)Man(a1-6)]Man(b1-4)GlcNAc(b1-4)GlcNAc
How it was run: as §1

[22] = target: GlcNAc(b1-2)Man(a1-3)[GlcNAc(b1-4)][GlcNAc(b1-2)Man(a1-6)]Man(b1-4)GlcNAc(b1-4)[Fuc(a1-6)]GlcNAc
How it was run: as §1

[23] = target: GlcNAc(b1-2)[GlcNAc(b1-4)]Man(a1-3)[GlcNAc(b1-2)Man(a1-6)]Man(b1-4)GlcNAc(b1-4)GlcNAc
How it was run: as §1

[24] = target: GlcNAc(b1-2)[GlcNAc(b1-4)]Man(a1-3)[GlcNAc(b1-4)][GlcNAc(b1-2)Man(a1-6)]Man(b1-4)GlcNAc(b1-4)GlcNAc
How it was run: as §1

[25] = target: GlcNAc(b1-2)[GlcNAc(b1-4)]Man(a1-3)[GlcNAc(b1-4)][GlcNAc(b1-2)[GlcNAc(b1-6)]Man(a1-6)]Man(b1-4)GlcNAc(b1-4)GlcNAc
How it was run: as §1

[26] = target: GlcNAc(b1-2)[GlcNAc(b1-4)]Man(a1-3)[GlcNAc(b1-4)][GlcNAc(b1-2)[GlcNAc(b1-6)]Man(a1-6)]Man(b1-4)GlcNAc(b1-4)[Fuc(a1-6)]GlcNAc
How it was run: as §1

[27] = target: GlcNAc(b1-2)[GlcNAc(b1-6)]Man(a1-6)[GlcNAc(b1-2)Man(a1-3)]Man(b1-4)GlcNAc(b1-4)GlcNAc
How it was run: as §1

[28] = target: GlcNAc(b1-2)[GlcNAc(b1-6)]Man(a1-6)[GlcNAc(b1-2)Man(a1-3)]Man(b1-4)GlcNAc(b1-4)[Fuc(a1-6)]GlcNAc
How it was run: as §1

[29] = target: GlcNAc(b1-2)[GlcNAc(b1-6)]Man(a1-6)[GlcNAc(b1-4)][GlcNAc(b1-2)Man(a1-3)]Man(b1-4)GlcNAc(b1-4)GlcNAc
How it was run: as §1

GlcNAc(b1-3)Fuc = target: GlcNAc(b1-3)Fuc
How it was run: as §1

GlcNAc(b1-3)Gal = target: GlcNAc(b1-3)Gal
How it was run: as §1

B1: SSR1 (Sclerotium rolfsii), A0A0M3KL30 (protein)
chain: TYKITVRVYQTNPDAFFHPVEKTVWKYANGGTWTITDDQHVLTMGGSGTSGTLRFHADNGESFTATFGVHNYKRWCDIVTNLAADETGMVINQQYYSQKNREEARERQLSNYQVKNAKGRNFQIVYTEAEGNDLHANLIIG
glycan array binding signal (z-score) (GalNAc(b1-4)GlcNAc): -0.098
glycan array binding signal (z-score) [1]: -0.338
glycan array binding signal (z-score) [2]: -0.322
glycan array binding signal (z-score) [3]: -0.339
glycan array binding signal (z-score) (GalNAc(b1-4)GlcNAc6S): -0.334
glycan array binding signal (z-score) (GalNAc(b1-6)GalNAc): -0.332
glycan array binding signal (z-score) (GalNAc3S(b1-4)GlcNAc): -0.34
glycan array binding signal (z-score) (GalNAc3S(b1-4)GlcNAc3S): -0.341
glycan array binding signal (z-score) [4]: -0.334
glycan array binding signal (z-score) (GalNAc4S6S(b1-4)GlcNAc): -0.347
glycan array binding signal (z-score) (GalNAc6S(b1-4)GlcNAc): -0.347
glycan array binding signal (z-score) (Glc(a1-4)Glc): -0.333
glycan array binding signal (z-score) [5]: -0.337
glycan array binding signal (z-score) (Glc(a1-6)Glc(a1-6)Glc): -0.333
glycan array binding signal (z-score) [6]: -0.337
glycan array binding signal (z-score) (Glc(b1-4)Glc): -0.318
glycan array binding signal (z-score) (Glc(b1-6)Glc): -0.329
glycan array binding signal (z-score) (GlcA(b1-3)Gal): -0.393
glycan array binding signal (z-score) (GlcA(b1-3)GlcNAc): -0.261
glycan array binding signal (z-score) (GlcA(b1-6)Gal): -0.335
glycan array binding signal (z-score) [7]: -0.325
glycan array binding signal (z-score) [8]: -0.342
glycan array binding signal (z-score) [9]: 3.12
glycan array binding signal (z-score) [10]: 2.74
glycan array binding signal (z-score) [11]: 1.03
glycan array binding signal (z-score) [12]: 3.11
glycan array binding signal (z-score) [13]: 3.37
glycan array binding signal (z-score) [14]: 4.43
glycan array binding signal (z-score) [15]: 6.33
glycan array binding signal (z-score) [16]: 3.01
glycan array binding signal (z-score) [17]: 1.09
glycan array binding signal (z-score) [18]: -0.263
glycan array binding signal (z-score) [19]: 5.28
glycan array binding signal (z-score) [20]: 2.64
glycan array binding signal (z-score) [21]: 2.81
glycan array binding signal (z-score) [22]: 2.76
glycan array binding signal (z-score) [23]: 3.04
glycan array binding signal (z-score) [24]: 1.2
glycan array binding signal (z-score) [25]: 0.675
glycan array binding signal (z-score) [26]: 0.52
glycan array binding signal (z-score) [27]: 3.93
glycan array binding signal (z-score) [28]: 3.66
glycan array binding signal (z-score) [29]: 1.41
glycan array binding signal (z-score) (GlcNAc(b1-3)Fuc): 0.263
glycan array binding signal (z-score) (GlcNAc(b1-3)Gal): -0.195
